# Among all 310,000 compounds or so, about 18,000 (5.8%) were called active. Inconclusive means that the source gave no clear call. Such entries were picked first, then a sample of the others. The call rests on the fitted dose curve; in most records, active means well fitted inhibition curve with a large enough effect; inconclusive means small, poorly fitted or top-dose-only effect, or another doubt; inactive means no such curve, though single readings can be large or run the other way. Potencies of inconclusive entries are left out as doubtful fits.
# Experiment: Primary qHTS for delayed death inhibitors of the malarial parasite plastid, 48 hour incubation
# Settings: P. falciparum luciferase growth in erythrocytes; series mostly up to 28.7 µM
# How it was run: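 Luciferase-expressing P. falciparum in infected erythrocytes (2% hematocrit, 0.1% parasitemia final) in RPMI 1640/0.5% Albumax were exposed to compound for 48 hours at 37 C, 5% CO2; growth read as luminescence.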
# Potency means the concentration at half of the fitted maximal effect; tags describe the fitted curve by direction and shape.
row,SMILES,Potency
1,Cc1cc(C)c(NC(=S)N(CCCN2CCN(C)CC2)Cc2cccs2)c(C)c1,inactive
2,CN(CC(=O)NC1CC(C)(C)NC(C)(C)C1)S(=O)(=O)c1ccc(Br)cc1,inactive
3,COC(=O)C1(C(C[N+](=O)[O-])c2ccco2)C(=O)NCC1c1ccccc1 (configuration not stated),"inconclusive [inhibitor, partial curve, poor fit]"
4,O=C(NCCc1ccc(Cl)cc1)C1CCC(CNc2c(N3CCCCC3)c(=O)c2=O)CC1 (configuration not stated),"inconclusive [inhibitor, single point]"
5,COc1ccc(/C=N/Nc2nc(-c3ccc(Cl)cc3)cc(C(F)(F)F)n2)c(OC)c1,inactive
6,Cc1ccc(S(=O)(=O)Nc2nc(C)c(C)s2)cc1,inactive
7,COc1cc(-c2nnc(SCC(=O)c3cc(C)n(CC4CCCO4)c3C)o2)cc(OC)c1OC (configuration not stated),active: 8.28 µM
8,COc1cccc(CN(C)CC(=O)Nc2ccccc2C(=O)Nc2ccccc2)c1OC,"inconclusive [inhibitor, partial curve, poor fit]"
9,CCOC(=O)c1c(CNCc2ccccc2F)c2sc(C)cc2n1C,"inconclusive [inhibitor, single point]"
10,Cc1sc2ncnc(SCC(=O)c3ccc(O)cc3O)c2c1C,"inconclusive [inhibitor, full curve]"
11,Cc1ccccc1Nc1nc(-c2cccnc2)cs1,inactive
12,O=C(CSc1nnc(NC(=O)c2ccc(F)cc2F)s1)NC1CCCC1,inactive
13,Cc1cc(C)c(S(=O)(=O)N2CCC(C(=O)NCc3ccco3)CC2)c(C)c1,"inconclusive [inhibitor, single point]"
14,Cc1cc(SCC(=O)N/N=C/c2ccc(O)c(O)c2O)c(C)cc1Br,active: 13.1 µM
15,CCN1C(=O)N(CC)C2C1N(CO)C(=O)N2CO (configuration not stated),inactive
16,COc1ccccc1NS(=O)(=O)c1cccc(C(=O)N/N=C(\C)c2cccnc2)c1,"inconclusive [inhibitor, partial curve, poor fit]"
17,CCc1ccc2[nH]c(=O)c(C(c3nnnn3CCOC)N3CCN(c4ccc(F)cc4)CC3)cc2c1 (configuration not stated),"inconclusive [inhibitor, single point]"
18,CCCCc1nnc(SCCSc2nnc(CCCC)n2N)n1N,inactive
19,C=C(C)CN(Cc1ccccc1)C(=S)Nc1ccccc1,inactive
20,O=C1CC(N2CCN(c3ccccc3)CC2)C(=O)N1c1ccc(Cl)cc1 (configuration not stated),inactive
21,CC(=O)c1cccc(Oc2cc(NN3CCCCC3)c([N+](=O)[O-])cc2[N+](=O)[O-])c1,inactive
22,CC(C)c1ccc(OCC(=O)Nc2ccc(S(=O)(=O)Nc3ccccn3)cc2)cc1,"inconclusive [inhibitor, single point]"
23,CCN(CC(=O)NCc1ccc(F)cc1)CC(=O)Nc1cc(S(=O)(=O)N(C)C)ccc1C,"inconclusive [inhibitor, single point]"
24,CCCCn1c(N)c(N(CC(C)C)C(=O)c2ccc(-n3c(C)ccc3C)cc2)c(=O)[nH]c1=O,"inconclusive [inhibitor, single point]"

row,SMILES,Potency
1,COc1ccc(OC)c2nc(-c3ccncc3)ccc12,"inconclusive [inhibitor, single point]"
2,Cc1ccc(NC(=S)NNC(=O)c2cn(C)nc2C)cc1,"inconclusive [inhibitor, single point]"
3,COc1cccc(C(=O)Nc2c3c(nn2-c2ccc(Cl)cc2)CS(=O)(=O)C3)c1OC,"inconclusive [inhibitor, partial curve, poor fit]"
4,N#CCCN(C(=O)c1cc2c(s1)-c1ccccc1S(=O)(=O)C2)c1ccccc1,"inconclusive [inhibitor, single point]"
5,O=S(=O)(NC1CCCC1)c1ccccc1Br,inactive
6,COc1cc(-c2[nH]ncc2CN2CCSCC2)cc(OC)c1OC,"inconclusive [inhibitor, partial curve, poor fit]"
7,O=C(Cc1ccc(NC2=NC3CS(=O)(=O)CC3S2)cc1)NCCc1ccccc1 (configuration not stated),inactive
8,Cc1ccc(NC(=O)C(C)Sc2nnc(C3CC3)n2C2CC2)cc1S(=O)(=O)N1CCOCC1 (configuration not stated),"inconclusive [inhibitor, single point]"
9,O=C(CCN=C1NS(=O)(=O)c2ccccc21)N1CCc2ccccc2C1,inactive
10,O=C(CCSc1nc2ccccc2o1)N1CCOCC1,inactive
11,CC1CCCCC1NS(=O)(=O)c1ccc2c(c1)CC(=O)N2C (configuration not stated),"inconclusive [inhibitor, single point]"
12,COc1ccc(C(=O)N/N=C/c2sc(N3CCOCC3)nc2-c2ccccc2)cc1OC,"inconclusive [inhibitor, partial curve]"
13,CC(=Nc1ccc2c(c1)CCC2)c1c(O)n(C)c(=O)n(C)c1=O,inactive
14,COC(CNC(=O)c1ccc2c(c1)ncn2-c1ccc(C)cc1C)OC,"inconclusive [inhibitor, single point]"
15,CCC(C)[C@H](NC(=O)OC(C)(C)C)C(=O)N/N=C/C1=Cc2ccccc2OC1 (some centres not stated),"inconclusive [inhibitor, single point]"
16,COc1ccc(N(C(=O)c2ccncc2)S(=O)(=O)c2ccc3c4c(cccc24)C(=O)N3C)cc1,"inconclusive [inhibitor, single point]"
17,CC(C)Cc1csc(NC(=O)c2ccc(Cl)cc2)c1C(=O)O,inactive
18,COc1ccc(Oc2nc(-c3ccccn3)nc3ccccc23)cc1,active: 1.65 µM
19,O=C1Nc2ccc([N+](=O)[O-])cc2OC1CCN1CCN(Cc2ccc3c(c2)OCO3)CC1 (configuration not stated),inactive
20,C=CCNC(=O)c1cc(-c2ccc(Br)cc2)on1,inactive
21,CC(C)CCN(C(=O)c1csnn1)C(C(=O)NC1CCCC1)c1ccccc1 (configuration not stated),inactive
22,O=C(NCCCN1CCOCC1)c1ccccc1N1C(=O)[C@@H]2Cc3c([nH]c4ccccc34)C(c3ccc(F)cc3)N2C1=O (some centres not stated),active: 13.1 µM
23,CC1CCCCC1NC(=O)c1cn(C)c2ccc(S(=O)(=O)N3CCCC3)cc2c1=O (configuration not stated),active: 8.28 µM
24,CCCCOc1ccc(CSCCNC(=S)Nc2ccccc2)cc1,"inconclusive [inhibitor, partial curve]"

row,SMILES,Potency
1,Cc1nn(-c2ccccc2)c(N2CCCC2)c1/C=N/O,inactive
2,CN1CCN(NC(=O)c2ccc(Cl)c([N+](=O)[O-])c2)CC1,inactive
3,COc1ccc(OC)c(CNc2ccc3c(c2)CCC3)c1,"inconclusive [inhibitor, partial curve, poor fit]"
4,COc1cccc(Oc2ccc(C(F)(F)F)cc2NC(=O)CCc2nc3ccccc3c(=O)[nH]2)c1,active: 5.86 µM
5,CC(=O)NS(=O)(=O)c1ccc(NC(=O)c2ccccc2F)cc1,inactive
6,N/C(=N\OC(=O)N1c2ccccc2Sc2ccccc21)c1ccccc1,"inconclusive [inhibitor, single point]"
7,CCOc1ccc(C(C(=O)NC2CCCCC2)N(CCOC)C(=O)c2snc(C(N)=O)c2N)cc1 (configuration not stated),"inconclusive [inhibitor, partial curve, poor fit]"
8,COc1cccc(C(=O)N/N=c2\sc3ccccc3n2C)c1,inactive
9,CCCCC1=CC2=CC(=O)C(C)(OC(=O)CC)C(=O)C2=CN1Cc1ccccc1 (configuration not stated),"inconclusive [inhibitor, single point]"
10,COCCNC(=O)c1onc(CSc2cc(C)cc(C)c2)c1C(=O)NCCOC,inactive
11,COc1cc(OC)nc(NC(=O)NS(=O)(=O)c2ccc(F)cc2)n1,inactive
12,O=C(Nc1ccc(Br)cc1F)c1ccc2c(c1)N(Cc1ccccc1)C(=O)CS2=O (configuration not stated),"inconclusive [inhibitor, partial curve, poor fit]"
13,C[C@@H](NC(=O)/C(C#N)=C/c1ccc(O)c(O)c1)c1ccccc1,"inconclusive [inhibitor, single point]"
14,Cn1c(SCC(=O)NC2CCCCC2)nnc1-c1ccccc1O,inactive
15,S=c1[nH]nc(-c2cccnc2)n1/N=C/c1cccs1,"inconclusive [inhibitor, single point]"
16,CCN(CC)CC#CCC(O)(c1ccccc1)C1CCCC1 (configuration not stated),"inconclusive [inhibitor, single point]"
17,CCC(c1nnnn1Cc1ccccc1)N1CCN(c2ccc(OC)cc2)CC1 (configuration not stated),"inconclusive [inhibitor, partial curve, poor fit]"
18,CCN(CC)S(=O)(=O)c1cccc(C(=O)N/N=C/c2cccc(O)c2O)c1,"inconclusive [inhibitor, single point]"
19,Cc1cnc(NC(=O)c2cc3c(C)nn(Cc4ccccc4Cl)c3s2)s1,active: 7.38 µM
20,COC(=O)[C@H]1C[C@@H]1[C@H](NC(=O)[C@H]1C[C@@H]1[C@H](NC(=O)OCc1ccccc1)c1ccccc1)c1ccccc1,"inconclusive [inhibitor, single point]"
21,Cc1ccc(C)c(NC(=O)CSc2n[nH]c(-c3ccccn3)n2)c1,"inconclusive [inhibitor, partial curve, poor fit]"
22,COc1ccc(N2CCN(c3ccc(NC(=O)/C=C\C(=O)O)cc3)CC2)cc1,active: 3.29 µM
23,O=C1N(Cc2cccnc2)C[C@@H]2C[C@@H](c3ccc4nsnc4c3)N3CCC[C@@]123,"inconclusive [inhibitor, partial curve, poor fit]"
24,Cc1noc(C)c1C(=O)Nc1ccc(Cl)cc1C(F)(F)F,"inconclusive [inhibitor, full curve, poor fit]"

# — PubChem BioAssay AID504832 (National Center for Advancing Translational Sciences (NCATS), 2011)
